# Experimental data as given in article PMC12136788.
# The list shows a part of the results.
# T1: UNK ZnF1-3 (human, UniProt Q9C0B0 31-174)
# T1 sequence: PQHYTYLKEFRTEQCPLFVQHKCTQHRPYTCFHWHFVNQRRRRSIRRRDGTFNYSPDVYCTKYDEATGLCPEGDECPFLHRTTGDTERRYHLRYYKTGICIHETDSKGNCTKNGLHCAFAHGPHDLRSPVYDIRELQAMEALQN
# B1: 91870445_91871446_617_CDS_ENSG00000001631_ENST00000394505|human|control|control (ssRNA)
# RNA: GGGAGUUCUACAGUCCGACGAUCGGGAACUUCAUGCAACAAAAUUUCAUAUGACUUAGCUCUGUAUUCCCGAGAAUUGAGACUGGCAGUAUUCUUUGGACGAAUAACAGCAACAUAUGCAUCUUCUAUGUUUUCUGGAUUUCCCAACAGAGGAUUGAGCAUCA
# B2: chr6:90346886:90346887:-_ENSG00000083099_ENST00000520318|hu_hu|motif|central (ssRNA)
# RNA: GGGAGUUCUACAGUCCGACGAUCCAGGGUAUGUUUUUCAGUGUUAAGGCAACUGUUCUGAUGUGUUUUUCCUUUGCUCUCGGUCACCAAAUACUGUACAUAUAAAUAGUAAGACUGGGCUUUGUGUUGUCCAUUGUUAAUCCUCAACAGAGGAUUGAGCAUCA
# B3: chr20:9438074:9438075:+_ENSG00000101333_ENST00000334005|hu_hu|FALSE|FALSE (ssRNA)
# RNA: GGGAGUUCUACAGUCCGACGAUCUUUGUGAUCUGAUGUCAGCGUCUGAAUUUUGAUUUCUGUUUCUUUUUUCAUUUCGAGACAAUUACUUCCCCCCUUCUUCUUCAUUGCCUUCUCUAGGAUUUUCUCAUGAGUCGACUUCUCCAACAGAGGAUUGAGCAUCA
# B4: chr2:9570881:9570882:+_ENSG00000119203_ENST00000238112|hu_mus|hu_hu_hu_mus_False|8_108 (ssRNA)
# RNA: GGGAGUUCUACAGUCCGACGAUCACUUGUCUUCUGUAGGAACCAGGGCAGGGCUCCACAGUGAUCCAAAUGGAAAUGACUGAUCAACAGAAGGUCGAUCUCAGCUGGGUCGAUAAGGUCAAUGUAAGGAAGAGCAUCCAUUCCCAACAGAGGAUUGAGCAUCA
# B5: 40850453_40850573_1439_3pUTR_ENSG00000132872_ENST00000255224|human|control|control (ssRNA)
# RNA: GGGAGUUCUACAGUCCGACGAUCAAAACCAAAAAUUCAACACUUAUAUCUUCAAGGCCCUCACAAGGAAUAUCAAAGACAAACAGCUCAUUGAACACUGCAUUGGGGGUGCAUUUCUUCACAUGAGUCUUCUUCUUGGAGAUUCAACAGAGGAUUGAGCAUCA
# B6: chr17:64801638:64801639:+_ENSG00000154229_ENST00000413366|hu_mus|hu_hu_hu_mus_False|28_98 (ssRNA)
# RNA: GGGAGUUCUACAGUCCGACGAUCUAUAUAUAUAUAUAUAUACACACACAUAUAUAGUAAAACCCUAGUUAAACGUGUAAAGUAGCCAUUCAUUUUUAAAAUUACAUCUACAUUUAAAAAUUAAUAUAUCUGAUAGAGUGCCAGCAACAGAGGAUUGAGCAUCA
# B7: chr10:97366135:97366136:-_ENSG00000059573_ENST00000371224|hu_mus|FALSE|FALSE (ssRNA)
# RNA: GGGAGUUCUACAGUCCGACGAUCACGAGCUUUCGUAAAAGAAAUGAAAUUACAUGUCGAGAGGCUGAGAAUGGCUGGGCUGGUCCCAGUCAAAACGCCAAGAGACUUUACCUCACUGAGGCGUUCCGGCAGCCAGGACUUUCCCAACAGAGGAUUGAGCAUCA
# B8: chr6:86475052:86475053:-_ENSMUSG00000051695_ENSMUST00000053015|mus_hu|FALSE|FALSE (ssRNA)
# RNA: GGGAGUUCUACAGUCCGACGAUCCUCAUUAAUGUUGGCGCCUUGGCGCCCGAUUAUGCAGCCAAUUAAGUUAUUUGGAAUGGUGAGUUCAUGGGUGGUUUGAGUAGAUGCAUCCAAACUUGCCCAAUAGCCUUUCACCUCUGGCAACAGAGGAUUGAGCAUCA
# B9: chr1:63797873:63797874:+_ENSMUSG00000025962_ENSMUST00000128621|mus_hu|FALSE|FALSE (ssRNA)
# RNA: GGGAGUUCUACAGUCCGACGAUCUCCUCUGGGGUGGCUUGAACCCAAACAAUAAGCAGAUCUGGAAACACAUAGCACAGCUACUCUUUGAAUAUCUGUAGCAGAAGUUGUAUCCACAUCAGAAAGUGGUAGCACUUGAUUCCUCAACAGAGGAUUGAGCAUCA
# B10: chr1:43168039:43168040:+_ENSMUSG00000010290_ENSMUST00000010434|mus_hu|FALSE|FALSE (ssRNA)
# RNA: GGGAGUUCUACAGUCCGACGAUCCUGUUUAGCGUCAUUAUUAUUGUGUUCCGUUUUAUUGUUCACAGGCAAAUUGGAAGACAAAAUUAGGGGUGAAACACUCGAAGAGGAAUUUGAUAAUUUUCUAAAGGCAUUACUGGUAAACAACAGAGGAUUGAGCAUCA
# B11: chr1:82725849:82725850:+_ENSMUSG00000026150_ENSMUST00000078332|mus_hu|motif|central (ssRNA)
# RNA: GGGAGUUCUACAGUCCGACGAUCGGACCCUCAUUCGCUGACUAAUGCCUUCAGUAUAUUCCAUUUCGUACUGAAUUCGACGGAUUUCUGCCAUCUCAGCAGCAGUGGGAGAAGGAAAUGCUGCCCUGCUCACCAAAUGUGUAACAACAGAGGAUUGAGCAUCA
# B12: chr17:62496873:62496874:-_ENSG00000108654_ENST00000581693|hu_hu|FALSE|FALSE (ssRNA)
# RNA: GGGAGUUCUACAGUCCGACGAUCUCCAAUUCGAUGAAUAUAAUCCUCUGAGGAGUUAGGGUAGUCAUAAUUGAUGACAAAUUUCACAUCUUCCACAUCUAGCCCUCUGGAGGCCACAUCUGUAGCAAUCAGAAUAGGAGCUUUCAACAGAGGAUUGAGCAUCA
# B13: 35504872_35504992_1019_CDS_ENSMUSG00000041408_ENSMUST00000048263|mouse|control|control (ssRNA)
# RNA: GGGAGUUCUACAGUCCGACGAUCUUCAUCAGCUUUAUAUUCAGAAGCCACUGCGGUUUCUGCAUUGGGUUUCUUAGUACUAUCUUCAGCAUUUUUGUGAAAGUGGUGACUAUUUUUUUCAUGUUCUUCACUAAAAUUCUCCACCAACAGAGGAUUGAGCAUCA
# B14: chr21:34901235:34901236:-_ENSG00000159131_ENST00000381815|hu_hu|FALSE|FALSE (ssRNA)
# RNA: GGGAGUUCUACAGUCCGACGAUCCAUGCCAUCCACUGUCCUCUGAAGAACAGUAUCUUUAAUUUUUAGUAAUAGAUCAUUAGAAACCUGAGGGGCUGGACAAUAGGCUCCCAUUCCCCCUGUGUUAGGGCCACCAUCUCCCUCCAACAGAGGAUUGAGCAUCA
# Target: T1, UNK ZnF1-3
# Experiment: nsRBNS (natural sequence RNA bind-n-seq); RBNS binding buffer (assumed for nsRBNS): 25 mM Tris pH 7.5, 150 mM KCl, 3 mM MgCl2, 0.01% Triton X-100, 500 ug/ml BSA, 20 U/ml SUPERase-In, 4 C; UNK is unkempt and MSI1 is Musashi-1; names of the RNAs are library labels; protein concentration not given here; high values mean tight binding
row,Binder,binding signal
1,B1,1.43 enrichment R
2,B2,0.561 enrichment R
3,B3,0.201 enrichment R
4,B4,1.65 enrichment R
5,B5,1.2 enrichment R
6,B6,2.88 enrichment R
7,B7,0.794 enrichment R
8,B8,0.468 enrichment R
9,B9,0.982 enrichment R
10,B10,1.54 enrichment R
11,B11,0.905 enrichment R
12,B12,0.955 enrichment R
13,B13,0.498 enrichment R
14,B14,1.54 enrichment R
